Relative growth data for 40 compounds are collected here from the supplement of paper PMC9446081.

Among all 39,000 compounds or so, about 220 (0.56%) showed activity. This is one part of the list.
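Further: static incubation at 37 °C against the wild-type strain, values averaged over two biological replicates.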

The test relates to Escherichia coli K-12 BW25113. Put plainly: relative growth (OD600 normalised to plate interquartile mean) (fraction); higher = less growth inhibition, active = 0.2 or less. The conditions noted are these: 50 µM; LB; incubation time: overnight (16-24 h).
For the compound `CC(C)(C)C(=O)Nc1c[nH]c(=O)[nH]c1=O`, the relative growth was inactive: 0.961.

On to `COC(=O)Cn1nc(N)c2ccccc21`, for which the relative growth is inactive: 0.988. To `COc1ccc(CN(C)C[C@@H]2OCCCC[C@H](C)Oc3ccc(NC(=O)CCC(F)(F)F)cc3C(=O)N([C@H](C)CO)C[C@H]2C)cc1` belongs inactive: 0.943. To `C[C@H]1CN([C@@H](C)CO)C(=O)c2cc(NC(=O)CCCCCC(=O)Nc3ccccc3N)ccc2O[C@H]1CN(C)Cc1ccc(-c2ccccc2)cc1` belongs inactive: 1.03. For `C[C@H](CO)N1C[C@H](C)[C@H](CN(C)S(=O)(=O)c2cn(C)cn2)Oc2ccc(NC(=O)c3ccncc3)cc2C1=O`, the relative growth was inactive: 0.97.

Regarding `Cc1ncc(CO)c(CN)c1O`, the relative growth was inactive: 1.01. To `CC(C)=CCc1c2c(c3occ(-c4ccc(O)c(O)c4)c(=O)c3c1O)C=CC(C)(C)O2` belongs inactive: 1.01; to `O=C(C[C@@H]1CC[C@@H]2[C@H](COC[C@@H](O)CN2C(=O)Nc2cccc(F)c2)O1)NCCCN1CCOCC1`, inactive: 0.955; to `COc1ccc(CN2C[C@@H](C)[C@H](OC)CN(C)C(=O)c3ccc(NC(=O)c4nc5ccccc5s4)cc3OC[C@@H]2C)cc1`, inactive: 1.03. To `C[C@H]1CN([C@@H](C)CO)C(=O)c2cc(NC(=O)CCC(F)(F)F)ccc2O[C@H]1CN(C)S(=O)(=O)c1cn(C)cn1` belongs inactive: 0.989. To `COc1cc(NS(=O)(=O)c2ccc(N)cc2)ncn1` belongs inactive: 0.874.

On to `C[C@@H]1CN([C@H](C)CO)C(=O)c2cc(C#Cc3cccc(F)c3)cnc2O[C@@H]1CN(C)C(=O)C1CCOCC1`, for which the relative growth was inactive: 1.02. As for `CC(=O)N[C@H]1[C@H](Oc2nc3cc(C)ccc3o2)O[C@H](CO)[C@@H](O)[C@@H]1O`, the relative growth is inactive: 0.969. To `N#Cc1nn(-c2ccccc2)c(=O)[nH]c1=O` belongs inactive: 0.952.

Take `Cc1noc(C)c1S(=O)(=O)N(C)C[C@@H]1Oc2ccc(NS(=O)(=O)c3ccccc3)cc2C(=O)N([C@@H](C)CO)C[C@@H]1C`: the relative growth is inactive: 1.02. To `Cc1noc(C)c1NC(=O)N(C)C[C@H]1OCCCC[C@H](C)Oc2ccc(NC(=O)Nc3ccc(F)cc3)cc2C(=O)N([C@H](C)CO)C[C@@H]1C` belongs inactive: 1; to `CCS(=O)(=O)N1C[C@]2(CN(Cc3cc(ccc3F)F)C2)c2c(n(c3cc(ccc23)OC)C)[C@@H]1CO`, inactive: 1. With `C[C@H]1CCCCO[C@H](CN(C)C(=O)Nc2cccc3ccccc23)[C@@H](C)CN([C@@H](C)CO)C(=O)c2cc(NC(=O)c3ccccc3)ccc2O1`, the relative growth is inactive: 1.05.

On to `COc1cccc(-c2cnc3c(c2)C(=O)N([C@H](C)CO)C[C@H](C)[C@H](CN(C)S(=O)(=O)c2cn(C)cn2)O3)c1`, for which the relative growth is inactive: 1.01. For the compound `C[C@@H]1CN([C@H](C)CO)C(=O)c2cc(NC(=O)CCCCCC(=O)Nc3ccccc3N)ccc2O[C@@H]1CN(C)Cc1ccc(C(F)(F)F)cc1`, the relative growth was inactive: 1. To `Cc1ccc(S(=O)(=O)N(C)C[C@H]2Oc3ccc(NC(=O)Nc4cccc5ccccc45)cc3C(=O)N([C@H](C)CO)C[C@@H]2C)cc1` belongs inactive: 1.02; to `Cc1cc(C)nc(NS(=O)(=O)c2ccc(N)cc2)n1`, inactive: 1.09; to `COC(=O)c1ccc(O)c(/C=N/N(CCO)C2=NS(=O)(=O)c3ccccc32)c1`, inactive: 0.868.

As for `C[C@H](CO)N1C[C@H](C)[C@@H](CN(C)Cc2ccc(C(F)(F)F)cc2)OCCCC[C@H](C)Oc2ccc(NC(=O)Cc3ccccc3)cc2C1=O`, the relative growth was inactive: 0.991. To `COc1ccc(S(=O)(=O)N(C)C[C@@H]2Oc3ccc(NC(=O)Nc4c(C)noc4C)cc3CC(=O)N([C@H](C)CO)C[C@H]2C)cc1` belongs inactive: 1. To `CO[C@H]1CN(C)C(=O)c2ccc(NC(=O)CC(F)(F)F)cc2OC[C@H](C)N(S(=O)(=O)c2cn(C)cn2)C[C@H]1C` belongs inactive: 0.985.

Consider `CN(C(=O)CN(CCO)CC(=O)N(C)C(C)(C)Cc1ccccc1)C(C)(C)Cc1ccccc1`, for which the relative growth is inactive: 0.878.

Turning to `Cc1noc(C)c1NC(=O)Nc1cccc2c1O[C@@H](CN(C)Cc1ccc(C(=O)Nc3ccccc3N)cc1)[C@H](C)CN([C@@H](C)CO)C2=O`, the relative growth was inactive: 1.02.

Consider `COc1ccccc1C#Cc1ccc2c(c1)O[C@H](CN(C)C(C)=O)[C@@H](C)CN([C@@H](C)CO)S2(=O)=O`, for which the relative growth is inactive: 0.984.

For `C[C@@H]1CN([C@@H](C)CO)C(=O)c2cc(NC(=O)Cn3cnnn3)ccc2O[C@H]1CN(C)Cc1ccc(Oc2ccccc2)cc1`, the relative growth was inactive: 0.993.

With `O=C(Cn1ccc([N+](=O)[O-])n1)N1CCOCC1`, the relative growth is inactive: 0.961. To `C[C@@H]1CN([C@@H](C)CO)C(=O)c2cc(NS(=O)(=O)c3ccc(F)cc3)ccc2O[C@H]1CN(C)CC1CC1` belongs inactive: 0.994; to `COc1ccc(NC(=O)Nc2ccc3c(c2)CC(=O)N([C@H](C)CO)C[C@H](C)[C@@H](CN(C)S(=O)(=O)c2c(C)noc2C)O3)cc1`, inactive: 1.02; to `COc1ccc(NC(=O)Nc2ccc3c(c2)C(=O)N([C@H](C)CO)C[C@@H](C)[C@H](CN(C)S(C)(=O)=O)O3)cc1`, inactive: 1.02. `Cc1ccc(S(=O)(=O)Nc2ccc3c(c2)CC(=O)N([C@@H](C)CO)C[C@@H](C)[C@H](CN(C)C(=O)Nc2cccc4ccccc24)O3)cc1`: the relative growth was inactive: 0.992.

`Cc1ccc(S(=O)(=O)N2C[C@H](O)COC[C@H]3O[C@H](CC(=O)NCc4ccc(Cl)c(Cl)c4)CC[C@@H]32)cc1`: the relative growth was inactive: 0.985. `C[C@H](CO)N1C[C@H](C)[C@H](CN(C)CC2CCCCC2)OCCCC[C@H](C)Oc2ccc(NC(=O)CCC(F)(F)F)cc2C1=O`: the relative growth is inactive: 0.963. To `COc1ccccc1S(=O)(=O)N[C@@H]1C=C[C@@H](CC(=O)N2CCOCC2)O[C@H]1CO` belongs inactive: 0.987; to `Cc1cc(C(=O)Nc2cccc3c2O[C@@H](CN(C)S(=O)(=O)c2ccc(F)cc2)[C@@H](C)CN([C@H](C)CO)C3=O)n(C)n1`, inactive: 0.979. To `Cc1noc(C)c1NC(=O)Nc1ccc2c(c1)CC(=O)N([C@@H](C)CO)C[C@@H](C)[C@@H](CN(C)Cc1ccc(C(F)(F)F)cc1)O2` belongs inactive: 0.993.
